Experimental data reported in the supplement of paper PMC3334620.
Over roughly 33,000 sequences, “E-score (-0.5 to 0.5)” has its median near -0.043; the highest 2% begin near 0.37. Some of the results follow.

These sequences were tested against T1, Upc2 (UniProt Q12151) (assay: PBM E-score (8-mer binding enrichment) (E-score (-0.5 to 0.5)); higher = stronger / more preferred TF binding; most listed sequences are background and not binding sites). Conditions: protein concentration: 200 nM; construct: GST-full length.
T1 sequence: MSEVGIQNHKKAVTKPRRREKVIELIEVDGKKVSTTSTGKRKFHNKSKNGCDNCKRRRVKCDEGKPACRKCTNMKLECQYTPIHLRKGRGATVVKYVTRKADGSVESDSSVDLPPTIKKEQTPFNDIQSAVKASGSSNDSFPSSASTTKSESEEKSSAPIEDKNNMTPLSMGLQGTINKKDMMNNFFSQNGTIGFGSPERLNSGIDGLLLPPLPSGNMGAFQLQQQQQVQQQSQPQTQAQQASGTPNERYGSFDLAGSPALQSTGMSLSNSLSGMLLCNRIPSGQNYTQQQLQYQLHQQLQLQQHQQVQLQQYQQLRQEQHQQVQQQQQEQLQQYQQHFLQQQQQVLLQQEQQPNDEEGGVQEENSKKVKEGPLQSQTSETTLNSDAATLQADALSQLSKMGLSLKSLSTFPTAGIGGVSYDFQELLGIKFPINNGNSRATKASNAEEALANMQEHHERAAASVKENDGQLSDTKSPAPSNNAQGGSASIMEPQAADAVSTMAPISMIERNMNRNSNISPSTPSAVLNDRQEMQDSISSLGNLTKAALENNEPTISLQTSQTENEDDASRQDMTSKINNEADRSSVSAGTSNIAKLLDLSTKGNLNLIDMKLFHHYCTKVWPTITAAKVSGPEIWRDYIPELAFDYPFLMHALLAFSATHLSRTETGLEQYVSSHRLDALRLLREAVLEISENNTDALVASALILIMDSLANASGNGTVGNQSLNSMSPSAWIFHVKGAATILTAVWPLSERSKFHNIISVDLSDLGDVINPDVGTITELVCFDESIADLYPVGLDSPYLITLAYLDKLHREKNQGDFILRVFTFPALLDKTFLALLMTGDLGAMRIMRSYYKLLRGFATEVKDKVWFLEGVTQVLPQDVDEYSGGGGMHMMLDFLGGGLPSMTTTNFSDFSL
How it was run: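 Detection of bound protein used fluorescent anti-GST, with scans normalised by masliner. The proteins were GST-tagged yeast transcription factors applied at about 100-200 nM to universal all-10-mer Agilent arrays made double-stranded by primer extension. Each ungapped eight-base word, pooled with its reverse complement, was scored with an E-score from the Universal PBM Analysis Suite.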

Row | Sequence | PBM E-score
1 | GAGAGTGA | 0.0106
2 | AAATGTCA | -0.0596
3 | CGGAATAC | 0.205
4 | ACACTCTA | 0.0995
5 | AGGTCTCA | -0.221
6 | ATCGTACA | 0.468
7 | CATCCTAG | -0.0989
8 | AGGAAGAG | -0.29
9 | GATCGCCA | -0.0262
10 | TGTCGGAA | 0.0576
11 | GACCGGAA | -0.0034
12 | CATCCATG | -0.195
13 | GGGAAACA | -0.0432
14 | CCGAACGA | 0.384
15 | AGCCCGCG | -0.128
16 | ATTTTTTA | 0.189
17 | AATGTATG | -0.12
18 | CCAGCCCA | -0.24
19 | CCTGAGGC | -0.207
20 | CAAACGAC | 0.464
21 | AAAGCGTG | -0.069
22 | AGGGCGAA | -0.154

Row | Sequence | PBM E-score
23 | CATGCAGA | -0.23
24 | AATCGTAT | 0.44
25 | CTAGGCTA | -0.244
26 | AGCGGCAC | -0.0916
27 | AGGTGTAG | -0.137
28 | CGCGTTTC | 0.0838
29 | AGCGGTGC | 0.0248
30 | GATATTAC | 0.195
31 | GTCTGGGA | 0.0225
32 | AAATAGAA | -0.0216
33 | CCCTTGGC | -0.264
34 | AAATATTC | 0.106
35 | GGGTAACC | -0.14
36 | CGAGTAAA | 0.185
37 | CGGTTGAG | 0.16
38 | GAGTCGCC | -0.0276
39 | ACTATTCC | -0.138
40 | ATGTGCGG | -0.209
41 | GGTACTGA | -0.0598
42 | CGATTTAG | 0.114
43 | GGCACTAC | -0.0625
44 | AAGTCGGT | -0.0727

Row | Sequence | PBM E-score
45 | GCGCTAAA | 0.085
46 | GTTCGTTA | 0.403
47 | AGAACACG | -0.0136
48 | AACGCGTA | 0.252
49 | GGCCGAGA | 0.0287
50 | TGCTGGAA | -0.0685
51 | ACCTTGCC | -0.157
52 | ACGCCAAC | 0.0836
53 | GGCGTTGA | -0.0389
54 | CAACACAG | -0.188
55 | GTTACTGA | 0.112
56 | GACATGGC | -0.0692
57 | CATACCCG | 0.0416
58 | GGAATCAA | -0.131
59 | ACACGCCC | -0.0613
60 | CCAAGTGC | -0.247
61 | GACCCGGA | -0.105
62 | ATAGTGAA | -0.0887
63 | CCCGAGCA | -0.127
64 | CGGACAAC | 0.00639
65 | GAGTACAA | -0.0557
66 | CCAGAGTC | -0.0405

Row | Sequence | PBM E-score
67 | GTAACGCA | 0.0913
68 | ATTCAGTA | 0.16
69 | ACACGGGT | -0.0399
70 | ATGTCTTA | -0.0704
71 | CCAGCTAA | -0.0877
72 | CGAACGGA | 0.223
73 | CACATGAC | -0.134
74 | AATAATGT | -0.123
75 | AAAAGCTG | 0.0411
76 | ACAAACAT | -0.0687
77 | TCCCAAGA | -0.155
78 | GTAATGCA | -0.201
79 | GACCGGCA | -0.082
80 | GTGATGAA | -0.0825
81 | ACCTACAC | -0.152
82 | ACATTACC | -0.232
83 | ACGTAGCC | 0.0382
84 | ATTTAAGA | 0.00342
85 | GGGCTTAC | -0.154
86 | AAGGTGTG | -0.21
